Laboratory results from PMC6440744.
These are yes or no findings as the source states them, for the method shown. Binding seen in cells or lysates may run through a third protein. Some binding calls cover weakened binding; strength is not graded here.

By UniProt entry, the sequences of proteins in these tests, tags left out. Residues count along the entry.
UniProt P28827, residues 877-1452: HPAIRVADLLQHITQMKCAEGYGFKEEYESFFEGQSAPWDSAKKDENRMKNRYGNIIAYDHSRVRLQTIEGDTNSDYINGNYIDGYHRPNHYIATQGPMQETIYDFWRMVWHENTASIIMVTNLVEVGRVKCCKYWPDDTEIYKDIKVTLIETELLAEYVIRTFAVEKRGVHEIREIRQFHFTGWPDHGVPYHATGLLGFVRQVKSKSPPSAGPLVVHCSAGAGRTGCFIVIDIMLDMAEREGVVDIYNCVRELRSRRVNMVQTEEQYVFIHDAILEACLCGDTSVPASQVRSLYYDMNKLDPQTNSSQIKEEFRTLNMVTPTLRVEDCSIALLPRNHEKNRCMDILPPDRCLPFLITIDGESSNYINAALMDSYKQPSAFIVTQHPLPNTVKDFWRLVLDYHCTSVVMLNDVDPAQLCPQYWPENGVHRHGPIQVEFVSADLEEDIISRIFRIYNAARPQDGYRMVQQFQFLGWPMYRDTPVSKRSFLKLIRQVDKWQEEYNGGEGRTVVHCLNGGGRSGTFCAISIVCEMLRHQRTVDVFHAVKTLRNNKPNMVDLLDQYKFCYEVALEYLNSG
UniProt P35222: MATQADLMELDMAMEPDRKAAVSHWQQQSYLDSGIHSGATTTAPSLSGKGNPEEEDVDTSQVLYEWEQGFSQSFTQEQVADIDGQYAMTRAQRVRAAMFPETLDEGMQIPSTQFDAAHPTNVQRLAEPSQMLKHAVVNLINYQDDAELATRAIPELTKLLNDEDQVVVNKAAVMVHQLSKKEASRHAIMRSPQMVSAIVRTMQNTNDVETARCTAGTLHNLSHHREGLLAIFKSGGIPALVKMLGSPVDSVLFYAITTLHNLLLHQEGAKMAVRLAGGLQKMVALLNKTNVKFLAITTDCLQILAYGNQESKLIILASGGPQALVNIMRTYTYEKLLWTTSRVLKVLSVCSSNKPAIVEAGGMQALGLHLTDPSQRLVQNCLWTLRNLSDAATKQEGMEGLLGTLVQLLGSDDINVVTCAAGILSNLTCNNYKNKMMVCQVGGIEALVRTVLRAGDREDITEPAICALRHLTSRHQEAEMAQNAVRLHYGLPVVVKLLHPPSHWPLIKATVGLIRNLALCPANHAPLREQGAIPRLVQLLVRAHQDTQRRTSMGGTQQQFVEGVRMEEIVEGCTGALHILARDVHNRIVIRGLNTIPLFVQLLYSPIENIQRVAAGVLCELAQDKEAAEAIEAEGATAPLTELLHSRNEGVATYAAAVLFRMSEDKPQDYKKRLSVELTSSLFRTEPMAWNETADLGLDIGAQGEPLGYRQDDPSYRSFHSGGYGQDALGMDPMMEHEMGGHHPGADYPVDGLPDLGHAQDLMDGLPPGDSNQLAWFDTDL
UniProt Q8TEW0: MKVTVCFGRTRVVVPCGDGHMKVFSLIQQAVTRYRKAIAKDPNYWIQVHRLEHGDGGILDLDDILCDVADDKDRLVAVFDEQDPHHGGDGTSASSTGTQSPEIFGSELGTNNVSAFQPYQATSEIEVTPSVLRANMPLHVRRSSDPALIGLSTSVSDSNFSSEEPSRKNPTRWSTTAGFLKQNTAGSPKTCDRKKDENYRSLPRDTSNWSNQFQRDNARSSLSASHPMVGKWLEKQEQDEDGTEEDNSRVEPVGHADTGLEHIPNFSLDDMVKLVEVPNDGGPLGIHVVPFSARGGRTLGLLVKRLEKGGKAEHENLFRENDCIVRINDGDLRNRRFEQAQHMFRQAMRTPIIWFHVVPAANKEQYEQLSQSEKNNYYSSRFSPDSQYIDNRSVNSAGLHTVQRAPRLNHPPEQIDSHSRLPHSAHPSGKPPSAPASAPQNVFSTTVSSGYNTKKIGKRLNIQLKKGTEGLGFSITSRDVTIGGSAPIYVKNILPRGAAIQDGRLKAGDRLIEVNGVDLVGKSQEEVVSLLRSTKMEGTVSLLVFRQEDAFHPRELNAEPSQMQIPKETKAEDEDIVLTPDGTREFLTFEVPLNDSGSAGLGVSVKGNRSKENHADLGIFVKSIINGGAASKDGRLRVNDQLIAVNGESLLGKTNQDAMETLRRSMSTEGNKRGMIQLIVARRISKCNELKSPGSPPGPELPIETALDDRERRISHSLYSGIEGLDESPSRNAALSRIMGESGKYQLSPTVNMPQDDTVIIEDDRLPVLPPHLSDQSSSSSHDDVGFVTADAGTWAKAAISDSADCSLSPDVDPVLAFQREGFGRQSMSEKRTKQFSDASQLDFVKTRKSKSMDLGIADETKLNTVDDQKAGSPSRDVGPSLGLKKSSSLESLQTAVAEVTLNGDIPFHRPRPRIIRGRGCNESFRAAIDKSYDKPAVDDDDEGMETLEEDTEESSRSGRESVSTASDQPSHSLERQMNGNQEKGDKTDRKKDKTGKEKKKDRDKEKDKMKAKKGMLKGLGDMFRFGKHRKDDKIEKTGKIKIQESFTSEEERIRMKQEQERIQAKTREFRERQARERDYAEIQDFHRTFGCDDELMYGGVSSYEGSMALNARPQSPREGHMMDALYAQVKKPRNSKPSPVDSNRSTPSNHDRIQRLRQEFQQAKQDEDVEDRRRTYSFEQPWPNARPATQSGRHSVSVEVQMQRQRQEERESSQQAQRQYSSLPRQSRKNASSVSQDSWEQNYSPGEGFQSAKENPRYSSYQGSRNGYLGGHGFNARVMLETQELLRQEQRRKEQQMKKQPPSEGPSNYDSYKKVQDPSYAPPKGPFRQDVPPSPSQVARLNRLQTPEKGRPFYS
UniProt P40763: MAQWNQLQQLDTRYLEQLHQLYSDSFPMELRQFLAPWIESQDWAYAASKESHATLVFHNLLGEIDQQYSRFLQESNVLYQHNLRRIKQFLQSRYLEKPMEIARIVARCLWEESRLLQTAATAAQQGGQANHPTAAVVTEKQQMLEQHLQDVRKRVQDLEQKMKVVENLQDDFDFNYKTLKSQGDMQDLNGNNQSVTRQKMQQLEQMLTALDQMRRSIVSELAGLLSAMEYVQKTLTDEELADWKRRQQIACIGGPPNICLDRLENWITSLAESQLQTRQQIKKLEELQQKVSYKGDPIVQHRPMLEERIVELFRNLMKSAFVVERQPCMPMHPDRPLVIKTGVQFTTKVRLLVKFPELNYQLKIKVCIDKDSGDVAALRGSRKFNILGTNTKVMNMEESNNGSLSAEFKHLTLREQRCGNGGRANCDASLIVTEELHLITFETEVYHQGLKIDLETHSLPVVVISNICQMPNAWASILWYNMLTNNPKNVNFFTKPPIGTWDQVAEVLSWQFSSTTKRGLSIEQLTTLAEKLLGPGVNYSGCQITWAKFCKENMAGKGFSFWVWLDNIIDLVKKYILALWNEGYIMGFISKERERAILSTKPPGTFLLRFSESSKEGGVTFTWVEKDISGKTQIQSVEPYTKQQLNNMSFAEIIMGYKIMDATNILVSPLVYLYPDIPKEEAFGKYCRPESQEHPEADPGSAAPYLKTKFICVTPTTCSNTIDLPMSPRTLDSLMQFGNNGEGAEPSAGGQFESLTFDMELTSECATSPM
UniProt O95819: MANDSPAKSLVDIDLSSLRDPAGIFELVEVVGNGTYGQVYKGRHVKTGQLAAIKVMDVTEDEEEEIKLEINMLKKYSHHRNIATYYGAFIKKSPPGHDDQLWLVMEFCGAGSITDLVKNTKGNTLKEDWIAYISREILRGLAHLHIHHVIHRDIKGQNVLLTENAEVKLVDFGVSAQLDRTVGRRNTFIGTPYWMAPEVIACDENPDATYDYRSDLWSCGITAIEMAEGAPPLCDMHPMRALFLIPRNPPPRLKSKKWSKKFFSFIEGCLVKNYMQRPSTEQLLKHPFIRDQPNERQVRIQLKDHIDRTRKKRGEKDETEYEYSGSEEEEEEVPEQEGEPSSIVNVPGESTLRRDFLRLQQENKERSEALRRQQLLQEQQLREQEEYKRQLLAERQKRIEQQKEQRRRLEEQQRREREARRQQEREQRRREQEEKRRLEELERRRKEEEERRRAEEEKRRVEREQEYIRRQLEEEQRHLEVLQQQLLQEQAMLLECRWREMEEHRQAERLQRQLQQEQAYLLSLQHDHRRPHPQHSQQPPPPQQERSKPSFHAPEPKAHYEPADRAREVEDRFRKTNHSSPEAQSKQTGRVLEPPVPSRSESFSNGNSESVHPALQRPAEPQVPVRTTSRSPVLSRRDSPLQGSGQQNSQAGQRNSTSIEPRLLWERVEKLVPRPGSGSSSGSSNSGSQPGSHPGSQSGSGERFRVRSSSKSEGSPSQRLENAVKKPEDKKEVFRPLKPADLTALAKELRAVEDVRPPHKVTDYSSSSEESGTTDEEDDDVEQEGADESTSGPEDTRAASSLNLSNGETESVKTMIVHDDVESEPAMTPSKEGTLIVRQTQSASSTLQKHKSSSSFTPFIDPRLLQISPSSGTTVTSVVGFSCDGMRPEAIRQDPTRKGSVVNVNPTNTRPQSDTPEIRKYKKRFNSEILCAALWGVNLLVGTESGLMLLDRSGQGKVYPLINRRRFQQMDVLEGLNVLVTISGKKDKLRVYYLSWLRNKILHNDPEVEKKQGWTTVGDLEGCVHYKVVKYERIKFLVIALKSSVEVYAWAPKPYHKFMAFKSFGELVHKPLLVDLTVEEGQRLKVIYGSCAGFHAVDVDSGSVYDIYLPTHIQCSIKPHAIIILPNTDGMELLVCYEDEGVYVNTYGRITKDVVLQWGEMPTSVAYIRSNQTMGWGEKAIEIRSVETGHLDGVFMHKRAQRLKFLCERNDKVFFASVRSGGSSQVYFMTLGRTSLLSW
UniProt P49023: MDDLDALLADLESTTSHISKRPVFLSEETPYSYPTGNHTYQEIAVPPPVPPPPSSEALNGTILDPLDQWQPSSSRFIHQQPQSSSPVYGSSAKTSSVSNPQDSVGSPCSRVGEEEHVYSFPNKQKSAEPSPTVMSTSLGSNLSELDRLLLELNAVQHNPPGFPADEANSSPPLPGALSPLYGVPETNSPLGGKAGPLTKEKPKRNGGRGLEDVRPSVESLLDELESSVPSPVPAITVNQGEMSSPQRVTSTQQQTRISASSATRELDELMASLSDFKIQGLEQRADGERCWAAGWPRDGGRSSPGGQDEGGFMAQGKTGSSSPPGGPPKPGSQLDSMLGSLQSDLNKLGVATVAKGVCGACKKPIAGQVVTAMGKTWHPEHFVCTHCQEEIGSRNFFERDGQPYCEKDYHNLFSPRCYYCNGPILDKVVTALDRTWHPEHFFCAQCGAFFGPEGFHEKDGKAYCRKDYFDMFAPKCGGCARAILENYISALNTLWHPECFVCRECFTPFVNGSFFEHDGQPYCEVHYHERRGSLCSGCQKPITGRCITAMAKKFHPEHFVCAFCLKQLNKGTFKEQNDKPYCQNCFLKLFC

T1: PTPRK ICD-C1089S (substrate-trapping mutant) (human) (UniProt Q15262)
T1 sequence (chain, biotin on the AviTag): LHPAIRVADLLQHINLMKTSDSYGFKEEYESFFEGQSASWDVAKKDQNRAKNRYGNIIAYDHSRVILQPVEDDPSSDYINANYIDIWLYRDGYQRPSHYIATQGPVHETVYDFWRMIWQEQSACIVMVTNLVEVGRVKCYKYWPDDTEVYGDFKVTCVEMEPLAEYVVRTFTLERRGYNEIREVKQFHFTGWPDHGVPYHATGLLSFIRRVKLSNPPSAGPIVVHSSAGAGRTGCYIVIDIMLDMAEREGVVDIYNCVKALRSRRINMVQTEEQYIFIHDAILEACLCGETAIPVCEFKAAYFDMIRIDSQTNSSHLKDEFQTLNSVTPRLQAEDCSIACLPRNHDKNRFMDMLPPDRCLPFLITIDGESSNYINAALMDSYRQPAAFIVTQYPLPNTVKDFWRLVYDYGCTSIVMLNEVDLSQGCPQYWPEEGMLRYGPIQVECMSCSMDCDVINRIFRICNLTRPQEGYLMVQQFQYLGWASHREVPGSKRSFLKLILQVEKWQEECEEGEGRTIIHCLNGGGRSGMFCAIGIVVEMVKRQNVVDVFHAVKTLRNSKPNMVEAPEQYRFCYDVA

T2: PTPRK D2 pseudophosphatase domain (human) (UniProt Q15262)
T2 sequence (chain, biotin on the AviTag): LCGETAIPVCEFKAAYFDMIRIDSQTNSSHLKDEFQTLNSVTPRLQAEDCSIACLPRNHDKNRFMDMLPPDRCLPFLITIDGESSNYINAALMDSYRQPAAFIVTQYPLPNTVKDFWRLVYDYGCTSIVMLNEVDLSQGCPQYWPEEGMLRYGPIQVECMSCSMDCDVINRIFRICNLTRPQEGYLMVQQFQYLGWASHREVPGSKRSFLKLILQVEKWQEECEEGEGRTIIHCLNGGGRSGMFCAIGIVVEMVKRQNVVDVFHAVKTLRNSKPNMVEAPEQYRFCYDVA

T3: PTPRK ICD-D1057A (substrate-trapping mutant) (human) (UniProt Q15262)
T3 sequence (chain, biotin on the AviTag): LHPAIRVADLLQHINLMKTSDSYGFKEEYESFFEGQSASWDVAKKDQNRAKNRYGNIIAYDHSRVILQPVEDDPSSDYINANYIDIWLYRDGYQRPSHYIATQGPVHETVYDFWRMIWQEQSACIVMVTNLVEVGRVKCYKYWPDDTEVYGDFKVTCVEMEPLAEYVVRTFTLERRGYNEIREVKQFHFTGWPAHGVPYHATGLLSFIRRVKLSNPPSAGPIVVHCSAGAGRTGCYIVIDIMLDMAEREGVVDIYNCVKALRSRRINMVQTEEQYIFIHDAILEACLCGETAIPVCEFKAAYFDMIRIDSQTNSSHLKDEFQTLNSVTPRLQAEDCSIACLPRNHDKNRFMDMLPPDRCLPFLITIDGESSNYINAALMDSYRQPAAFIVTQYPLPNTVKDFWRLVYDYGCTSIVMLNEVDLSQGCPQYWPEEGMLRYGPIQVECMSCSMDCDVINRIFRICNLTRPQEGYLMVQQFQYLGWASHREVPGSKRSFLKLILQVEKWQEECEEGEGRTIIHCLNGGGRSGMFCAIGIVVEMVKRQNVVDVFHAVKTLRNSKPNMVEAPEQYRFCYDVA


Tests used:
[1] = molecular target: T1, PTPRK ICD-C1089S (substrate-trapping mutant) (human); experiment: pull-down; biotinylated His.TEV.Avi PTPRK, PTPRM or chimeric domains on streptavidin-coated magnetic beads; lysate of confluent, pervanadate-treated MCF10A cells, 1.5 hr at 4°C; immunoblot of inputs, supernatants and pull downs; only the target purified
[2] = molecular target: T2, PTPRK D2 pseudophosphatase domain (human); experiment: as above
[3] = molecular target: T3, PTPRK ICD-D1057A (substrate-trapping mutant) (human); experiment: as above
[4] = molecular target: PTPRM intracellular domain (ICD) (human) (UniProt P28827); experiment: as above
[5] = molecular target: T3, PTPRK ICD-D1057A (substrate-trapping mutant) (human); experiment: pull-down; pull downs from confluent, pervanadate-treated MCF10A lysates with PTPRK D1057A ICD or PTPRK-D2, then incubated with 20 mM vanadate for 30 min; immunoblot of eluates and pull downs; only the target purified
[6] = molecular target: T1, PTPRK ICD-C1089S (substrate-trapping mutant) (human); experiment: pull-down; confluent, pervanadate-treated MCF10A lysates treated with CIP to remove protein phosphorylation (20 U/ml at 4°C for 16 hr is told for the D2 experiment), then pull downs with PTPRK C1089S ICD or PTPRK D2; immunoblot; only the target purified

binding [1] | binding [2] | binding [3] | binding [4] | binding [5] | binding [6] | Molecule
no binding | no binding | no binding | – | – | – | β-Catenin (from UniProt P35222 1-781)
binds | – | – | binds | – | binds | PARD3 (from UniProt Q8TEW0 1-1356)
binds | – | – | binds | – | binds | p120^Cat (protein, UniProt O60716 1-968) MDDSEVESTASILASVKEQEAQFEKLTRALEEERRHVSAQLERVRVSPQDANPLMANGTLTRRHQNGRFVGDADLERQKFSDLKLNGPQDHSHLLYSTIPRMQEPGQIVETYTEEDPEGAMSVVSVETSDDGTTRRTETTVKKVVKTVTTRTVQPVAMGPDGLPVDASSVSNNYIQTLGRDFRKNGNGGPGPYVGQAGTATLPRNFHYPPDGYSRHYEDGYPGGSDNYGSLSRVTRIEERYRPSMEGYRAPSRQDVYGPQPQVRVGGSSVDLHRFHPEPYGLEDDQRSMGYDDLDYGMMSDYGTARRTGTPSDPRRRLRSYEDMIGEEVPSDQYYWAPLAQHERGSLASLDSLRKGGPPPPNWRQPELPEVIAMLGFRLDAVKSNAAAYLQHLCYRNDKVKTDVRKLKGIPVLVGLLDHPKKEVHLGACGALKNISFGRDQDNKIAIKNCDGVPALVRLLRKARDMDLTEVITGTLWNLSSHDSIKMEIVDHALHALTDEVIIPHSGWEREPNEDCKPRHIEWESVLTNTAGCLRNVSSERSEARRKLRECDGLVDALIFIVQAEIGQKDSDSKLVENCVCLLRNLSYQVHREIPQAERYQEAAPNVANNTGPHAASCFGAKKGKDEWFSRGKKPIEDPANDTVDFPKRTSPARGYELLFQPEVVRIYISLLKESKTPAILEASAGAIQNLCAGRWTYGRYIRSALRQEKALSAIADLLTNEHERVVKAASGALRNLAVDARNKELIGKHAIPNLVKNLPGGQQNSSWNFSEDTVISILNTINEVIAENLEAAKKLRETQGIEKLVLINKSGNRSEKEVRAAALVLQTIWGYKELRKPLEKEGWKKSDFQVNLNNASRSQSSHSYDDSTLPLIDRNQKSDKKPDREEIQMSNMGSNTKSLDNNYSTPNERGDHNRTLDRSGDLGDMEPLKGTTPLMQDEGQESLEEELDVLVLDDEGGQVSYPSMQKI

The remaining lines, values behind:

Molecule | binding [1] | binding [2] | binding [3] | binding [4] | binding [5] | binding [6]
STAT3 (from UniProt P40763 1-770) | no binding | no binding | no binding | – | – | –
MAP4K4 (from UniProt O95819 1-1239) | – | – | binds | binds | binds | –
Paxillin (from UniProt P49023 1-591) | no binding | no binding | no binding | – | – | –
RAPGEF6 (from UniProt Q8TEU7 1-1601) | – | – | binds | – | binds | –
